The text below walks through data of the supplement of paper PMC10338343.

± gives the standard deviation. Only a part is listed here, and it is no random draw.
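Further: 1 nM active piRISC with 0.1 nM target library at 33 °C single turnover.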

The test has as its system MIWI (PIWIL1) piRISC loaded with piRNA #1 (30 nt). Description: pre-steady-state target cleavage rate (min^-1); MIWI and MILI are mouse PIWI proteins and EfPiwi is from a freshwater sponge; tags in brackets are library labels; higher = faster piRNA-guided slicing of the target. The following applies: guide: piRNA #1 5'p-UGAGGUAGUAGGUUGUAUAGUAUCCAGAGG; auxiliary factor: 500 nM mouse GTSF1. The method in brief: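 Active affinity-purified piRISC carrying one synthetic guide (1 nM) was mixed with a transcribed, DNA-blocked target RNA library […] in HEPES–potassium acetate buffer at 33 °C for 0–8 or 0–960 min, with or without 500 nM GTSF1 partner protein. Uncleaved targets were then sequenced and normalised to depth and to weakly complementary targets. Three trials were pooled, and k3 was capped at 0.0001 min^-1. A burst-and-steady-state fit was applied to obtain the pre-steady-state cleavage rate.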
Turning to GGAGUGGAUACUAUACAACCUACUACCCCA, the “pre-steady-state target cleavage rate” value came out at 0.544 ± 0.081.

GGAGACCAUUCUAUACUACCUACUACCUCA: the “pre-steady-state target cleavage rate” value was 0.197 ± 0.022.

In the case of GGAGUGGAUUCUAUACAUCCUACUACCUCA, the “pre-steady-state target cleavage rate” value was found to be 1.33 ± 0.074.

For the sequence CCUCAGGAUACUAUACAACCUACUUCCUCA, the “pre-steady-state target cleavage rate” value was found to be 0.797 ± 0.052.

As for GGACUGGAUACUAUACAACCUACUACGUCA, the “pre-steady-state target cleavage rate” value turned out to be 0.505 ± 0.06.

As to GGAGACGAUUCUAUACAACCUACUAGCUCA, the “pre-steady-state target cleavage rate” value came out at 0.636 ± 0.053.

As for GGUCUGGAUACUUUACAACCUACUACGUCA, the “pre-steady-state target cleavage rate” value stood at 0.238 ± 0.035.

In the case of GGAGAGGAUACUUUAGAACCUACUACCUCA, the “pre-steady-state target cleavage rate” value worked out at 0.919 ± 0.051.

GGAGACCUUACAUACAACCUACUACCUCA: the “pre-steady-state target cleavage rate” value came out at 0.0616 ± 0.0085.

With GGACUGGAUACUAACAACCUACUACCUCA, the “pre-steady-state target cleavage rate” value stood at 1.52 ± 0.14.

Turning to GGAGAGGAUACUAUACAUCCAACUACCUCA, the “pre-steady-state target cleavage rate” value came to 0.0804 ± 0.011.

Take CCUCUGGAUAGUAUACAACCUACUACCUGA: the “pre-steady-state target cleavage rate” value turned out to be 0.0128 ± 0.005.

Consider GGAGAGGAUACUAUACAAGCUACUACCUCA, for which the “pre-steady-state target cleavage rate” value turned out to be 0.454 ± 0.032.

With GGAGAGGAUACUAUUCAAGCUACUACCUCA, the “pre-steady-state target cleavage rate” value is 0.436 ± 0.03.

Turning to GGAGUGGUUACUAUACAACCUACUAGCUCA, the “pre-steady-state target cleavage rate” value was found to be 0.0393 ± 0.0076.

Consider CGUCUGGAUACUAUACAACGUACUACCUCA, for which the “pre-steady-state target cleavage rate” value is 0.603 ± 0.043.
